The supplement of paper PMC12217912
This is one part of the list. Sequences were assembled here from the parent chain. Inactive controls read about 0.05.

B1: TEV protease; numbered along this chain (parent)
chain: MGESLFKGPRDYNPISSSICHLTNESDGHTTSLYGIGFGPFIITNKHLFRRNNGTLVVQSLHGVFKVKDTTTLQQHLVDGRDMIIIRMPKDFPPFPQKLKFREPQREERICLVTTNFQTKSMSSMVSDTSCTFPSGDGIFWKHWIQTKDGQCGSPLVSTRDGFIVGIHSASNFTNTNNYFTSVPKNFMELLTNQEAQQWVSGWRLNADSVLWGGHKVFMVKPEEPFQPVKEATQL

Variants of: B1
Assay: raw area under fraction-flipped curve 0-4 h after induction (AUC4h, not background-subtracted), DNA-recorder readout of cleavage of the substrate (dimensionless); higher = more cleavage of the substrate by the protease variant
Conditions: temperature: 34 °C; time window: 0-4 h after rhamnose induction
Description: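 In vivo DNA recorder in E. coli TOP10(DE3) ΔrhaA at 34 °C. Each TEVp single-site mutant (parent TEVp 0) is paired with a single-site variant of the 7-mer TEVs (canonical ENLYFQ|S). The substrate sits between flexible linkers in a Bxb1-sfGFP-TEVs-SsrA fusion, so cleavage stabilises Bxb1 and speeds flipping of a recombination array, read by NGS. The value is the raw area under the fraction-flipped curve over 0-4 h after rhamnose induction (AUC4h), with ≥20 reads per time point. It is not background-subtracted; inactive controls average about 0.047.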
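Note: Bxb1 expression induced with 0.2% (w/v) L-rhamnose at OD600 near 0.5, cultures sampled hourly, flipped fraction per protease–substrate barcode pair counted by paired-end Illumina sequencing.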

Row | Variant | area with substrate ENLCFQS | area with substrate ENLDFQS | area with substrate ENLEFQS | area with substrate ENLFFQS | area with substrate ENLGFQS | area with substrate ENLKFQS | area with substrate ENLNFQS | area with substrate ENLQFQS | area with substrate ENLRFQS | area with substrate ENLSFQS | area with substrate ENLAFQS | area with substrate ENLMFQS | area with substrate ENLPFQS | area with substrate ENLWFQS | area with substrate ENLHFQS | area with substrate ENLVFQS | area with substrate ENLLFQS | area with substrate ENLIFQS | area with substrate ENLTFQS
1 | P40D | 0.0827 | 0.0709 | 0.0592 | 0.0984 | 0.0647 | 0.0818 | 0.0716 | 0.0785 | 0.0931 | 0.0605 | – | – | – | – | – | – | – | – | –
2 | A232G | 0.0906 | 0.058 | – | 0.106 | – | – | 0.0555 | – | – | – | 0.0951 | 0.0684 | 0.0667 | 0.0633 | – | – | – | – | –
3 | A232N | – | 0.0572 | – | 0.0887 | 0.0654 | 0.0799 | 0.0715 | 0.07 | 0.1 | 0.0508 | 0.042 | 0.0774 | 0.0467 | – | 0.0593 | – | – | – | –
4 | D208E | – | – | 0.0591 | 0.0862 | 0.0663 | 0.0916 | 0.0685 | 0.0617 | – | – | 0.0765 | 0.0785 | 0.114 | – | 0.0722 | 0.0732 | – | – | –
5 | D208V | 0.0592 | 0.0545 | 0.0667 | 0.0691 | 0.0582 | 0.0607 | 0.0579 | – | 0.0676 | – | 0.0427 | – | – | – | 0.0634 | 0.0669 | 0.0548 | – | –
6 | D208S | – | 0.0599 | – | 0.0984 | – | 0.0753 | 0.066 | 0.0465 | – | – | 0.0652 | – | – | 0.0609 | – | – | – | 0.0804 | –
7 | S16V | 0.0655 | 0.0644 | 0.0744 | 0.101 | 0.0662 | – | 0.0472 | 0.065 | 0.0728 | 0.0504 | – | 0.076 | 0.0624 | 0.0747 | 0.0739 | – | 0.0601 | 0.0909 | –
8 | G80C | 0.0805 | – | – | 0.0746 | – | 0.0545 | 0.0623 | 0.0714 | – | 0.0745 | – | – | 0.0685 | 0.0673 | 0.0704 | – | 0.0674 | 0.106 | –
9 | G80N | 0.0765 | 0.0611 | 0.0584 | 0.0875 | – | 0.0813 | – | 0.0535 | 0.0833 | 0.0582 | – | – | – | 0.092 | 0.0673 | 0.106 | 0.0835 | 0.0647 | 0.0557
10 | R204K | 0.0755 | 0.0546 | – | 0.0962 | – | 0.0831 | 0.0675 | – | – | 0.0743 | 0.0583 | 0.07 | – | 0.0797 | 0.0591 | 0.102 | 0.058 | 0.0849 | 0.065
11 | V220R | 0.0608 | 0.0688 | 0.0658 | 0.0774 | 0.0759 | 0.0662 | 0.0665 | 0.0828 | – | – | 0.0674 | – | 0.0595 | 0.0541 | 0.0751 | 0.081 | 0.0735 | – | –
12 | F117N | 0.084 | 0.0629 | 0.0563 | – | – | 0.0897 | 0.0676 | 0.0608 | 0.0804 | 0.0609 | – | 0.0836 | 0.0627 | 0.0848 | 0.0629 | 0.0844 | 0.0489 | 0.0904 | –
13 | T72N | 0.0715 | 0.0635 | 0.125 | 0.0976 | – | 0.0711 | 0.0523 | 0.0516 | 0.0567 | 0.0633 | – | 0.0606 | 0.0595 | 0.0431 | 0.0661 | 0.0704 | – | 0.0756 | –
14 | E224K | – | 0.0677 | 0.0418 | 0.0856 | 0.0772 | 0.076 | 0.0681 | 0.0617 | 0.0902 | 0.0661 | 0.0487 | – | – | 0.0723 | 0.0782 | 0.0856 | – | 0.0822 | –
